Measured values reported in the supplement of paper PMC4466236.
In all, about 33,000 sequences were measured (“E-score (dimensionless, -0.5 to 0.5)”: median about -0.058, highest 2% from about 0.35 on). The list shows a part of the results.

Tested on: MvaT
Assay: PBM 8-mer E-score (mean of HK and ME arrays) (E-score (dimensionless, -0.5 to 0.5)); higher = stronger relative binding preference; most listed sequences are background and not binding sites
Method in brief: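 Reported values are rank-based E-scores, taken as the mean of two universal arrays and parsed with a custom script. Each 8-mer score falls between -0.5 and 0.5. The arrays, ME and HK, were double-stranded 60-mers with a constant 25-mer primer region and a variable 35-mer region covering all 8-mers. They were probed, by an earlier protocol, with full-length P. aeruginosa MvaT carrying an N-terminal glutathione S-transferase fusion.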

Sequence	PBM 8-mer E-score
AACACCGT	-0.00703
CTCTCACC	-0.137
ACAGCCCT	-0.193
CGACATCG	-0.131
GTTATCTA	0.15
CGTGTCGA	-0.181
GCAATAAA	0.214
AATATACG	0.331
AGCCTACC	-0.129
CAGGCAAC	0.0351
CATAACTC	0.211
CGCATATC	0.093
CAGGCTAC	-0.205
CTGGTCAC	-0.219
GCCCCAGA	-0.188
CCACACCC	-0.0379
CATGATCG	-0.131
TACTCCCA	0.0718
ATAAATTC	0.309
AACAAGGT	0.00606
AAGTCTAC	0.033
CCGCACTC	-0.254
AAGCATAT	0.177
AACCTTCA	-0.118
CGGCTAGA	-0.141

Sequence	PBM 8-mer E-score
ACCGGACA	-0.188
CAAAGCCC	-0.279
AGGAGTTG	0.01
ACGTGGAC	-0.0763
AACACTTC	0.105
CCCCGCGC	-0.219
GCCCGGGA	-0.177
ACCACCCT	-0.0852
CTATGGGC	-0.116
ATCGGCAC	-0.14
GGCCTTCA	-0.202
AAATGGAG	-0.0705
CACGTATG	-0.0815
CGGAATCA	-0.0777
GCTTGTCA	-0.157
CTCCCACA	-0.175
CGTACCGC	-0.262
ACACGGGA	-0.209
AACCGACA	0.108
CAATTTGG	0.0733
AGTTAATC	0.169
AGTCAACG	-0.095
ATGGAACG	-0.0827
GAAAACAC	0.0574
ATCCAGAC	-0.0115

Sequence	PBM 8-mer E-score
GCACCAAA	0.0418
CTTAGTAC	0.202
AGAGGTGA	-0.197
ACGCCCTA	-0.0861
AGCCGTGA	-0.057
ACAGTTAA	0.299
AGTTGCGG	0.203
ATTAGGAC	0.0658
TCTTACAA	0.129
CAACGAAA	0.0978
ACGGGAGG	-0.255
GTTAATCA	0.183
CCAAGTTC	0.0376
GTGTTCCA	-0.00277
CGGCCCTA	-0.203
GCCGCTCA	-0.105
GTAAACTA	0.233
GCACCAGC	-0.17
ACCCTCAG	-0.135
GCGAGCGA	-0.0777
AATGTGGC	0.0102
AAGATACT	0.157
ATCGCATG	-0.0639
ATAATGTG	0.268
ACGACAGC	-0.215

Sequence	PBM 8-mer E-score
AATAGATT	0.251
CGATTAAG	0.0954
CACCCTAG	-0.0575
CGTATAAG	0.147
ATCTGACG	-0.0841
GCACTTCA	-0.102
CCTCGAAC	-0.0311
CTCTCGGA	-0.147
TCTGAAAA	0.0184
CATATAAA	0.365
GAGCCACC	-0.174
ATGCAAAA	0.0909
CATCACCG	-0.262
CGGATCTC	-0.121
CCCATCCG	-0.148
CATTATGC	0.191
CCCATATA	0.196
GGGACACA	-0.103
AGTGAAAC	0.102
GAGTTACA	0.104
ATATTCTC	0.286
CATATGAC	0.101
ATTTCTTG	0.0491
ACAAGGTC	-0.0848
ATCCATCC	-0.15

Sequence	PBM 8-mer E-score
GACGCAAC	-0.061
AAGTCCAT	-0.0121
GTAAGCCA	-0.174
CATCATGC	-0.12
AAGCGGAA	-0.021
GCGGAGAA	-0.176
TGTTATAA	0.437
AATGGACA	0.0887
ATTCACGG	-0.07
AGCTAGTG	-0.0269
GTTAAGAA	-0.103
CCTCGTGA	-0.253
AACCCAAT	0.0936
CAACCCAC	-0.0308
CCCTGTAC	-0.157
CCGACAAA	0.0087
CCGAGAAG	-0.244
AGTTCACG	0.0778
CCTGGCGC	-0.207
CAACTCCC	-0.128
CGCTTCGC	-0.241
AAGTTCAC	0.229
ATAGTGTC	0.193
CGGTGAGC	-0.261
CCTGTCTA	-0.122

Sequence	PBM 8-mer E-score
CGCAAGTA	0.195
AACCGAAC	0.0615
CCGCTCGA	-0.0617
ACAATGGC	0.0275
GTACTGAA	-0.0172
CTGGCCGA	-0.205
CTGGCAGC	-0.221
ACGCGTCC	-0.0682
AGCATTTA	0.274
AGACTTGC	-0.117
CGGATCCC	-0.162
GACCCGAA	-0.11
CCTAAGGC	-0.273
ACGTCCCG	-0.241
GATAGGCC	-0.175
GATTACCC	-0.034
CAAAATCG	0.105
ACCGCCAT	0.00133
AAGCCCAC	-0.27
CTTCGCCA	-0.192
CAATCATG	0.0178
ACCATGCA	-0.00695
GATTCGCA	-0.0801
CAATCATC	-0.174
GCGAGACA	-0.0902

Sequence	PBM 8-mer E-score
AGTTCTGG	0.0672
CACACGCC	-0.111
AGGCGCAT	-0.197
AGTCACGG	-0.187
CTAATTCC	0.121
GTCTTCTA	0.00399
CGCTTTGC	-0.133
AGAAAGGG	-0.151
GGCTAATA	0.194
CAAGCGCG	-0.203
CACCTAAA	0.022
AAGCAGTA	0.0353
CATGGTCA	-0.171
GCGTAGCC	-0.313
ATCGAGAA	0.0884
AGGAGGTG	-0.269
ACAAGCTG	-0.114
CGAGATCC	-0.0821
GTACGCAA	-0.0291
CTGAGGGA	-0.124
GCAGTTTA	0.0494
CTAGCAGA	0.0121
